# Experimental data published in PubChem BioAssay (Tox21).
# Values joined by “and” are separate entries in the source; they are usually repeats but may differ in a detail not shown here. Equal entries are not always repeated. The source holds several records for some structures; these can differ, active in one and inactive in another. Active and inactive are the calls of the source. Unless noted, calls follow the shape of the dose curve; as a rule, active = well fitted curve in the direction sought with a large enough effect in the repeat runs; inconclusive = weak or mixed curves; inactive = no such curve, though single readings can be large; an effect the other way counts as inactive or inconclusive.
# Legend:
# [1] = qHTS assay for identifying genotoxic compounds that show differential cytotoxicity against isogenic chicken DT40 cell lines with known DNA damage response pathways - Rev3 mutant cell line (AID 743014); settings: chicken DT40 Rev3-/- viability, CellTiter-Glo, 40 h; activity, negative = cytotoxicity: at 68.4 µM (top of the series); also: nearly all actives have a fitted effect of over 55% in size; also: potency is read from the fitted curve at half-maximal effect
# [2] = qHTS assay for identifying genotoxic compounds that show differential cytotoxicity against isogenic chicken DT40 cell lines with known DNA damage response pathways - Rad54/Ku70 mutant cell line (AID 743015); settings: DT40 Rad54/Ku70 mutant viability, CellTiter-Glo, 40 h; activity change, negative = cytotoxicity: at 66.8 µM (top of the series); also: nearly all actives have a fitted effect of over 60% in size; also: potency is read from the fitted curve at half-maximal effect; as to activity change, negative = cytotoxicity: % is scaled to controls: 0 for no effect and ±100 for the full control effect
# [3] = qHTS assay to identify small molecule antagonists of the androgen receptor (AR) signaling pathway - cell viability counter screen (AID 743033; also: potency is read from the fitted curve at half-maximal effect; nearly all actives have a fitted effect of over 45% in size); settings: AR-bla HEK293 viability, CellTiter-Glo luminescence, 16 h; activity change, negative = cytotoxicity: at 58.5 µM (top of the series) unless noted
# [4] = molecular target: Androgen receptor (Homo sapiens) (UniProt P10275); assay: qHTS assay to identify small molecule antagonists of the androgen receptor (AR) signaling pathway (AID 743035; active = well fitted inhibition curve with a large enough effect in the signal ratio in the repeat runs, not every such curve was filed as active; inconclusive = weak or mixed curves, or effect the other way; inactive = no such curve, though single readings can be large or run the other way; the % refers to the signal ratio; also: potency is read from the fitted curve at half-maximal effect); settings: HEK293 AR-UAS-bla, R1881-stimulated, beta-lactamase FRET, 16 h; activity change, negative = inhibition: at 58.5 µM (top of the series) unless noted
# UniProt P10275, sequence (P10275 whole entry, looked up): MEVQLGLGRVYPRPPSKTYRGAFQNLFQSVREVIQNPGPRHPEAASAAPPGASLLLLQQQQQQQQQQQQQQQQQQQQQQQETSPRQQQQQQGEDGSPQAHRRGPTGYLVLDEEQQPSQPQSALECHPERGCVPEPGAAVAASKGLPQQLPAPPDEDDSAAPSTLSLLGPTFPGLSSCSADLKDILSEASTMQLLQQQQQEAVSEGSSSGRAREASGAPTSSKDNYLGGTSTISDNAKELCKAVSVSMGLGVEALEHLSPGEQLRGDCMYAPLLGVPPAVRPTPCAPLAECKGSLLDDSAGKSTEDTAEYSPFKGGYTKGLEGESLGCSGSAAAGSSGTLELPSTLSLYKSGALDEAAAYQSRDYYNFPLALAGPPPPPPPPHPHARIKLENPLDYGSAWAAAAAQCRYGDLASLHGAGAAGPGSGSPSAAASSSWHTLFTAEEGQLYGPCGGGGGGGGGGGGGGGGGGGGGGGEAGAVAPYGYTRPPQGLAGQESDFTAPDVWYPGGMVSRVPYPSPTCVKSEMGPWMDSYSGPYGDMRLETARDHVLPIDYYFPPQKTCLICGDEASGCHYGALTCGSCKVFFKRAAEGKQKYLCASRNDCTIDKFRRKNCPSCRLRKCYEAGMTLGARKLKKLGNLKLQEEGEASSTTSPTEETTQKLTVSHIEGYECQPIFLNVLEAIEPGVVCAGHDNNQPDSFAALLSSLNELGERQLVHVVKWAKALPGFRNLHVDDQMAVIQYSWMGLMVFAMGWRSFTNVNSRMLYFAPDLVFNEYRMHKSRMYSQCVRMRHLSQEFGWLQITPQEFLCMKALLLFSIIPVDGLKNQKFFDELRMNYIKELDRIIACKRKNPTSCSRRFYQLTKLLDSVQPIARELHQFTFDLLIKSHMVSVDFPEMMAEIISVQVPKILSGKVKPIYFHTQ
# Outline: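 AR-bla HEK293 reporter cells; 4 h settle at 37C/5% CO2; compound + R1881 agonist, 16 h at 37C; LiveBLAzer B/G FRET substrate 2 h RT; fluorescence intensity read. qHTS format.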
# [5] = molecular target: Androgen receptor (Homo sapiens) (UniProt P10275); assay: qHTS assay to identify small molecule agonists of the androgen receptor (AR) signaling pathway (AID 743036; active = well fitted activation curve with a large enough effect in the signal ratio in the repeat runs, with a control signal flat, not every such curve was filed as active; inconclusive = weak or mixed curves, or effect the other way; inactive = no such curve, though single readings can be large or run the other way; the % refers to the signal ratio; also: potency is read from the fitted curve at half-maximal effect); settings: HEK293 AR-UAS-bla GripTite, beta-lactamase FRET ratio, 16 h; activation: at 62.4 µM (top of the series) unless noted
# Outline: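 Activation was read as beta-lactamase FRET signal from LiveBLAzer B/G substrate, added for 2 h at room temperature. Before that, GeneBLAzer AR-UAS-bla GripTite (HEK293) cells had 16 h compound exposure at 37C.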
# [6] = qHTS assay to identify small molecule antagonists of the thyroid receptor (TR) signaling pathway - cell viability counter screen (AID 743064); settings: GH3.TRE-Luc viability, CellTiter-Fluor, 24 h; activity change, negative = cytotoxic: at 70.3 µM (top of the series) unless noted; also: nearly all actives have a fitted effect of over 50% in size; also: potency is read from the fitted curve at half-maximal effect
# Outline: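 In-well cytotoxicity read by CellTiter-Fluor (30 min, 37 C) following 23.5 h exposure of GH3 cells bearing a TRE-luciferase sensor. Compounds were added alongside 1 nM (final) T3 to drive TR transactivation.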
# [7] = qHTS assay to identify small molecule antagonists of the thyroid receptor (TR) signaling pathway (AID 743065); also: nearly all actives have a fitted effect of over 55% in size; also: potency is read from the fitted curve at half-maximal effect; as to activity, negative = inhibition: % is scaled to controls: 0 for no effect and ±100 for the full control effect
# Outline: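 GH3.TRE-Luc rat pituitary cells carrying two TR response elements driving luciferase were plated for 4 h, given compound plus 1 nM T3 (final), and incubated 23.5 h at 37 C. ONE-Glo luminescence measured reporter inhibition; CellTiter-Fluor fluorescence tracked cytotoxicity.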
# [8] = qHTS assay to identify small molecule antagonists of the estrogen receptor alpha (ER-alpha) signaling pathway - cell viability counter screen (AID 743074; calls by dose curve;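 also: HEK293 cells carrying ER-alpha-UAS-bla reporter stimulated with 17beta-estradiol; potency is read from the fitted curve at half-maximal effect; nearly all actives have a fitted effect of over 45% in size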)
# [9] = molecular target: Aromatase (Homo sapiens) (UniProt P11511); assay: qHTS assay to identify aromatase inhibitors (AID 743083); settings: MCF-7 aro ERE, testosterone-driven ERE luciferase, 24 h; activity, negative = inhibition: at 70.3 µM (top of the series); also: potency is read from the fitted curve at half-maximal effect; nearly all actives have a fitted effect of over 55% in size
# UniProt P11511, sequence (P11511 whole entry, looked up): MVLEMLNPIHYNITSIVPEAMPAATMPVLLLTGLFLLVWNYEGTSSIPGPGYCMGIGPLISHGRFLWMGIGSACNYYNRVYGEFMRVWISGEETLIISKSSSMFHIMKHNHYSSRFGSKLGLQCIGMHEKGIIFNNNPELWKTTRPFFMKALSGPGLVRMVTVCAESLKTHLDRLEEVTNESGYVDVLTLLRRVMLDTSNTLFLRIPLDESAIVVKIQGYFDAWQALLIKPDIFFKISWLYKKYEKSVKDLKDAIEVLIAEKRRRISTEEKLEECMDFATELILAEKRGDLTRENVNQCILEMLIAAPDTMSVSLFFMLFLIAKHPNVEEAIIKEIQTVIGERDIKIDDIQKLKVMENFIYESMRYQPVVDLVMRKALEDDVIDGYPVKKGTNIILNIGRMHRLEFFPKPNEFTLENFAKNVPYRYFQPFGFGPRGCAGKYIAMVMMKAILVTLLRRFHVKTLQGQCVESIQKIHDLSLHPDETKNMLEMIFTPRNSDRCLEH
# [10] = molecular target: Estrogen receptor (Homo sapiens) (UniProt P03372); assay: qHTS assay to identify small molecule antagonists of the estrogen receptor alpha (ER-alpha) signaling pathway (AID 743069; active = well fitted curve in the direction sought with a large enough effect in the signal ratio in the repeat runs, not every such curve was filed as active; inconclusive = weak or mixed curves, or effect the other way; inactive = no such curve, though single readings can be large or run the other way; the % refers to the signal ratio; also: potency is read from the fitted curve at half-maximal effect; as to activity, negative = inhibition: % is scaled to controls: 0 for no effect and ±100 for the full control effect); settings: HEK293 ER-alpha-UAS-bla, beta-lactamase ratio, antagonist mode; activity, negative = inhibition: at 69.4 µM (top of the series) unless noted
# UniProt P03372, sequence (P03372 whole entry, looked up): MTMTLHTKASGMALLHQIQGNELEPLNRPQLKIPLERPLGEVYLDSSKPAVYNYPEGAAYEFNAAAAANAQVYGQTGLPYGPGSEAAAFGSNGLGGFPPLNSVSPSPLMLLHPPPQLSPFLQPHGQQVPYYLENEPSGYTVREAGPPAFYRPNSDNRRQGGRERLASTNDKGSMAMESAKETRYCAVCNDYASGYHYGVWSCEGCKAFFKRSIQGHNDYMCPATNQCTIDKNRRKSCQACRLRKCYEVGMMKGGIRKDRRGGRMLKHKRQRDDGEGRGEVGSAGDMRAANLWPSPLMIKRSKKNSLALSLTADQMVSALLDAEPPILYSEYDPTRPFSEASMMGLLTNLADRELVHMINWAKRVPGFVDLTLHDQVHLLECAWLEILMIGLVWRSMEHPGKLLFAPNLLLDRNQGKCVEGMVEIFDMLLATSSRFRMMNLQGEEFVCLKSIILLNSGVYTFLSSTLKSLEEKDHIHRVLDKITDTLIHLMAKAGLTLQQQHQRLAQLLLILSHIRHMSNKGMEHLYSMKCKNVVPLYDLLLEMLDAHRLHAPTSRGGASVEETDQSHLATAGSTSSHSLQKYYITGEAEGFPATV
# Outline: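 A 17beta-estradiol challenge was applied right after compound transfer to ER-alpha-UAS-bla HEK293 cells previously kept in charcoal-stripped serum. Plates stood 18 hr at 37C and 5% CO2; fluorescence was read following 2 hr FRET substrate loading at room temperature.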
# [11] = molecular target: Estrogen receptor (Homo sapiens) (UniProt P03372); assay: qHTS assay to identify small molecule agonists of the estrogen receptor alpha (ER-alpha) signaling pathway (AID 743075; calls by dose curve;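 also: HEK293 GripTite cells with ER-alpha and UAS-driven beta-lactamase reporter; potency is read from the fitted curve at half-maximal effect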)
# [12] = molecular target: Estrogen receptor (Homo sapiens) (UniProt P03372); assay: qHTS assay to identify small molecule agonists of the estrogen receptor alpha (ER-alpha) signaling pathway using the BG1 cell line (AID 743079); settings: BG1Luc4E2 cells, ERE-luciferase agonist, 22 h; activation: at 70.3 µM (top of the series) unless noted; also: nearly all actives have a fitted effect of over 20% in size; also: potency is read from the fitted curve at half-maximal effect
# [13] = test system: thyroid hormone receptor (rat, GH3 cells); assay: qHTS assay to identify small molecule agonists of the thyroid receptor (TR) signaling pathway (AID 743066; calls by dose curve; also: % is scaled to controls: 0 for no effect and ±100 for the full control effect); settings: GH3.TRE-Luc cells, TR agonist luciferase, 24 h; activation: at 83.9 µM (top of the series) unless noted
# Tags tell the direction and shape of the fitted curve or compound fluorescence and quenching.
smiles,measurement,setting,value
CC(C)C(C)(C)C(C)(C)C(C)(C)S,Potency,[1],"inconclusive: 68.6 µM [cytotoxic, single point]"
same,Potency,[2],"inconclusive: 24.3 µM [cytotoxic, partial curve, poor fit]"
same,Potency,[3],"inconclusive: 13.8 µM [cytotoxic, full curve, poor fit]"
same,Potency,[4],inconclusive: 61.6 µM
same,Potency,[5],"inconclusive: 54.9 µM [fluorescent, partial curve, poor fit]"
same,Potency,[6],"inconclusive: 27.3 µM [cytotoxic, single point]"
same,Potency,[7],"inconclusive: 27.3 µM [inhibitor, single point]"
same,Potency,[8],"inconclusive: 0.0389 µM [rising, full curve, poor fit]"
same,Potency,[9],"inconclusive: 61.1 µM [inhibitor, partial curve, poor fit]"
C(=C(c1ccccc1)c1ccccc1)c1ccccc1,Potency,[1],"inconclusive: 21.7 µM [cytotoxic, partial curve]"
same,Potency,[2],"inconclusive: 43.3 µM [cytotoxic, partial curve, poor fit]"
same,Potency,[10],active: 54.9 µM [inconclusive]
same,Potency,[11],active: 7.76 µM [inconclusive]
CCCCCCCCCC/C=C/C#N,Potency,[1],"inconclusive: 19.3 µM [cytotoxic, partial curve, poor fit]"
same,Potency,[2],inactive
same,Potency,[7],inactive
same,Potency,[10],inactive
same,Potency,[12],inactive
CO[Si](CCCOCC1CO1)(OC)OC (stereo not given),Potency,[1],"inconclusive: 68 µM [cytotoxic, single point] and active: 38.6 µM"
same,Potency,[2],inconclusive: 77 µM [cytotoxic]
same,Potency,[10],inactive
same,Potency,[12],inactive and inconclusive: 68.6 µM [activator]
Cc1cc(C(=C2C=CC(=Nc3ccc(S(=O)(=O)O)cc3S(=O)(=O)O)C=C2)c2ccc(Nc3ccc(S(=O)(=O)O)cc3)cc2)ccc1N,Potency,[1],inactive
same,Potency,[2],"inconclusive: 44.7 µM [cytotoxic, single point]"
CCCCN,Potency,[1],"inconclusive: 36.3 µM [cytotoxic, single point]"
same,Potency,[2],inactive
same,Potency,[3],"inconclusive: 29.1 µM [cytotoxic, single point]"
Cc1nc(-c2ccc(OCC(C)C)c(C#N)c2)sc1C(=O)O,Potency,[1],"inconclusive: 16.8 µM [rising, partial curve, poor fit]"
same,Potency,[2],inconclusive: 33.5 µM [cytotoxic]
same,Potency,[4],"inconclusive: 19 µM [rising, partial curve, poor fit]"
same,Potency,[5],"inconclusive: 15.1 µM [fluorescent, partial curve]"
same,Potency,[7],active: 13.3 µM
same,Potency,[10],"inconclusive: 6.01 µM [fluorescent, full curve]"
same,Potency,[8],"inconclusive: 6.74 µM [rising, partial curve, poor fit]"
same,activation,[12],inconclusive: -17.2% [phenotype inactive]
CC(C)(C)C1(CCc2ccc(Cl)cc2)CO1 (stereo not given),Potency,[1],"inconclusive: 24.3 µM [cytotoxic, full curve]"
same,Potency,[2],"inconclusive: 27.3 µM [cytotoxic, partial curve, poor fit]"
same,Potency,[6],inactive
same,Potency,[7],inactive
same,Potency,[10],inactive
NC1=NCC2c3ccccc3Cc3ccccc3N12 (stereo not given),Potency,[1],active: 26.6 µM
same,Potency,[2],"inconclusive: 29.8 µM [cytotoxic, single point]"
same,Potency,[3],"inconclusive: 0.012 µM [rising, full curve, poor fit]"
same,Potency,[7],"inconclusive: 26.6 µM [inhibitor, partial curve]"
CCCCCCCCCCCCCC(=O)OC,Potency,[1],"inconclusive: 68.4 µM [cytotoxic, single point]"
same,Potency,[2],"inconclusive: 68.4 µM [cytotoxic, single point]"
same,Potency,[4],inactive
same,Potency,[5],inactive
same,Potency,[7],inactive
Cc1ccc(O)c([C@H](CCN(C(C)C)C(C)C)c2ccccc2)c1,Potency,[1],"inconclusive: 33.5 µM [cytotoxic, single point]"
same,Potency,[2],"inconclusive: 33.5 µM [cytotoxic, single point]"
same,Potency,[6],active: 11.9 µM
same,Potency,[13],inactive
c1cc2c3c(c1)ccc1cccc(c13)C2,Potency,[1],"inconclusive: 39.4 µM [cytotoxic, partial curve]"
same,Potency,[2],inconclusive: 62.4 µM [cytotoxic]
same,Potency,[3],"inconclusive: 44.6 µM [cytotoxic, partial curve, poor fit]"
same,Potency,[6],"inconclusive: 8.82 µM [rising, partial curve]"
C=CC(C)(CCC=C(C)C)OC(C)=O (stereo not given),Potency,[1],inactive and active: 54.5 µM
same,Potency,[2],"inconclusive: 68.6 µM [cytotoxic, single point]"
Cc1cnc(NC(=O)C2=C(O)c3ccccc3S(=O)(=O)N2C)s1,Potency,[1],"inconclusive: 23.7 µM [cytotoxic, partial curve, poor fit]"
same,Potency,[2],"inconclusive: 68.7 µM [cytotoxic, partial curve, poor fit]"
same,Potency,[6],inactive
same,Potency,[10],"inconclusive: 43.7 µM [fluorescent, partial curve]"
same,Potency,[8],"inconclusive: 61.6 µM [cytotoxic, single point]"
same,Potency,[12],active: 21.1 µM
